# This is one part of the list. At the low end of the ranking the order means little.
# Target: GST-SBP-SLBP (stem-loop binding protein) (UniProt Q14493)
# Assay: targeted RNA Bind-n-Seq;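 note: DESeq read counts versus GST-SBP nonspecific binding control pulldown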
# Settings: RBNS binding buffer: 25 mM Tris pH 7.5, 150 mM KCl, 3 mM MgCl2, 0.1% Tween, 0.5 mg/mL BSA, 1 mM DTT; 27 nM protein, 750 pM RNA pool; temperature not stated; high values mean tight binding
row,Sequence,binding signal (log2 fold change)
1,GGUCACGUCUCAAUCAACUCUCACGAGGGGGGGAAAACCCCUUUACCCUCCACAUCAACAGCUCGCAGUCAAG,-0.341
2,GGUCACGUCUCAAUCAACUCACUCGAGGGGGGGAAAACCCCUUUACCCUCACUAUCAACAGCUCGCAGUCAAG,-0.55
3,GGUCACGUCUCAAUCAACUCCAUCGAGGGGGGGAAAACCCCUUUACCCUCACUCUCAACAGCUCGCAGUCAAG,0.322
4,GGUCACGUCUCAAUCAACUCAAUCCCAGGAGUUUACUCCUGCUUACUCAACAGCUCGCAGUCAAG,-0.0564
5,GGUCACGUCUCAAUCAACUCAAUGUCAGGAGUUUACUCCUGCUUUUUCAACAGCUCGCAGUCAAG,-0.225
6,GGUCACGUCUCAAUCAACUCAUCUCCCAGGGAAAUCCCUGGUAUUCUCAACAGCUCGCAGUCAAG,0.0118
7,GGUCACGUCUCAAUCAACUCAUAAGAGGGGGGGAAAACCCCUUUGCCCUCGAAUUCAACAGCUCGCAGUCAAG,-0.168
8,GGUCACGUCUCAAUCAACUCAAUCCCCAGGGAAAUCCCUGGUUUACUCAACAGCUCGCAGUCAAG,0.393
9,GGUCACGUCUCAAUCAACUCCCUCGAGGGGGGGAAAACCCCUUUACCCUCAAUUUCAACAGCUCGCAGUCAAG,-0.0258
10,GGUCACGUCUCAAUCAACUCUUCGUCAGGAGUUUUCUCCUGUAAAUUCAACAGCUCGCAGUCAAG,0.143
11,GGUCACGUCUCAAUCAACUCUUCCCCCAGGGAAAACCCUGGCUAUUUCAACAGCUCGCAGUCAAG,0.19
12,GGUCACGUCUCAAUCAACUCAUCGUCCAGGGAAACCCCUGGUAUUUUCAACAGCUCGCAGUCAAG,0.0352
13,GGUCACGUCUCAAUCAACUCUAUUCCAGGAGUUUCCUCCUGUUAUCUCAACAGCUCGCAGUCAAG,0.16
14,GGUCACGUCUCAAUCAACUCUUUCUCAGGAGUUUACUCCUGUAAUCUCAACAGCUCGCAGUCAAG,0.271
15,GGUCACGUCUCAAUCAACUCAAUUUCAGGAGUUUUCUCCUGCAUUCUCAACAGCUCGCAGUCAAG,-0.0449
16,GGUCACGUCUCAAUCAACUCUUCGUCCAGGGAAAUCCCUGGUUAUUUCAACAGCUCGCAGUCAAG,-0.0573
17,GGUCACGUCUCAAUCAACUCUUCGUCCAGGGAAACCCCUGGUAUAUUCAACAGCUCGCAGUCAAG,0.0135
18,GGUCACGUCUCAAUCAACUCAGUUUCAGGAGUUUCCUCCUGCUAUUUCAACAGCUCGCAGUCAAG,-0.262
19,GGUCACGUCUCAAUCAACUCUUUUUCAGGAGUUUUCUCCUGUAAUCUCAACAGCUCGCAGUCAAG,-0.138
20,GGUCACGUCUCAAUCAACUCCUCAGAGGGGGGGAAAACCCCUUUACCCUCGUUAUCAACAGCUCGCAGUCAAG,-0.487
21,GGUCACGUCUCAAUCAACUCAUGUCCAGGAGUUUACUCCUGUUUUUUCAACAGCUCGCAGUCAAG,-0.0573
22,GGUCACGUCUCAAUCAACUCAUCUUCCAGGGAAAGCCCUGGCAAUCUCAACAGCUCGCAGUCAAG,0.0424
23,GGUCACGUCUCAAUCAACUCUUCUUCCAGGGAAACCCCUGGUUUAUUCAACAGCUCGCAGUCAAG,-0.201
24,GGUCACGUCUCAAUCAACUCAUUUCCAGGAGUUUUCUCCUGCUUUCUCAACAGCUCGCAGUCAAG,-0.00588
25,GGUCACGUCUCAAUCAACUCUACUCCCAGGGAAACCCCUGGUUUUUUCAACAGCUCGCAGUCAAG,-0.136

row,Sequence,binding signal (log2 fold change)
1,GGUCACGUCUCAAUCAACUCAUCUUCAGGAGUUUACUCCUGCUAUGUCAACAGCUCGCAGUCAAG,0.208
2,GGUCACGUCUCAAUCAACUCUACUCCAGGAGUUUACUCCUGUAAAUUCAACAGCUCGCAGUCAAG,-0.109
3,GGUCACGUCUCAAUCAACUCUCUAGAGGGGGGGAAAACCCCUUUACCCUCAAUUUCAACAGCUCGCAGUCAAG,0.0538
4,GGUCACGUCUCAAUCAACUCAUUUCCAGGAGUUUGCUCCUGUAUUCUCAACAGCUCGCAGUCAAG,-0.113
5,GGUCACGUCUCAAUCAACUCAAUGUCAGGAGUUUACUCCUGUUUACUCAACAGCUCGCAGUCAAG,0.0858
6,GGUCACGUCUCAAUCAACUCUUCCUCCAGGGAAAGCCCUGGCUUACUCAACAGCUCGCAGUCAAG,0.0152
7,GGUCACGUCUCAAUCAACUCUUCUUCCAGGGAAAACCCUGGCUUACUCAACAGCUCGCAGUCAAG,0.106
8,GGUCACGUCUCAAUCAACUCUCUAGAGGGGGGGAAAACCCCUUUACCCUCCAUUUCAACAGCUCGCAGUCAAG,0.192
9,GGUCACGUCUCAAUCAACUCAUGUCCAGGAGUUUACUCCUGCAAUCUCAACAGCUCGCAGUCAAG,0.371
10,GGUCACGUCUCAAUCAACUCAUCCUCAGGAGUUUACUCCUGUUUUUUCAACAGCUCGCAGUCAAG,0.0464
11,GGUCACGUCUCAAUCAACUCUUUCUCCAGGGAAAACCCUGGUUAUGUCAACAGCUCGCAGUCAAG,-0.205
12,GGUCACGUCUCAAUCAACUCUUCUUCCAGGGAAAUCCCUGGCAAUUUCAACAGCUCGCAGUCAAG,-0.0874
13,GGUCACGUCUCAAUCAACUCCACAGAGGGGGGGAAAACCCCUUUACCCUCAAUAUCAACAGCUCGCAGUCAAG,0.0653
14,GGUCACGUCUCAAUCAACUCUCUGGAGGGGGGGAAAACCCCUUUACCCUCAUAUUCAACAGCUCGCAGUCAAG,-0.308
15,GGUCACGUCUCAAUCAACUCAUCCUCAGGAGUUUCCUCCUGUUUUUUCAACAGCUCGCAGUCAAG,-0.0568
16,GGUCACGUCUCAAUCAACUCAUUUCCCAGGGAAAACCCUGGCUUACUCAACAGCUCGCAGUCAAG,0.186
17,GGUCACGUCUCAAUCAACUCCUAUGAGGGGGGGAAAACCCCUUUACCCUCUACAUCAACAGCUCGCAGUCAAG,-0.0946
18,GGUCACGUCUCAAUCAACUCUUUUUCAGGAGUUUUCUCCUGUUUUCUCAACAGCUCGCAGUCAAG,0.0216
19,GGUCACGUCUCAAUCAACUCUUCUCCAGGAGUUUUCUCCUGUAUUUUCAACAGCUCGCAGUCAAG,-0.121
20,GGUCACGUCUCAAUCAACUCAAAAGAGGGGGGGAAAACCCCUUUACCCUCAAUGUCAACAGCUCGCAGUCAAG,0.272
21,GGUCACGUCUCAAUCAACUCAUCAGAGGGGGGGAAAACCCCUUUACCCUCGUAAUCAACAGCUCGCAGUCAAG,-0.488
22,GGUCACGUCUCAAUCAACUCUACUUCCAGGGAAAACCCUGGUAUAUUCAACAGCUCGCAGUCAAG,-0.167
23,GGUCACGUCUCAAUCAACUCAGUCUCCAGGGAAAUCCCUGGCAAAUUCAACAGCUCGCAGUCAAG,-0.207
24,GGUCACGUCUCAAUCAACUCAACUUCAGGAGUUUUCUCCUGCAAUCUCAACAGCUCGCAGUCAAG,0.0573
25,GGUCACGUCUCAAUCAACUCUUCCUCAGGAGUUUUCUCCUGCUAUUUCAACAGCUCGCAGUCAAG,0.0366

row,Sequence,binding signal (log2 fold change)
1,GGUCACGUCUCAAUCAACUCUCAAGAGGGGGGGAAAACCCCUUUGCCCUCAUACUCAACAGCUCGCAGUCAAG,-0.264
2,GGUCACGUCUCAAUCAACUCAUUUUCAGGAGUUUGCUCCUGCUAUCUCAACAGCUCGCAGUCAAG,0.21
3,GGUCACGUCUCAAUCAACUCAACUCCCAGGGAAAACCCUGGCUUUUUCAACAGCUCGCAGUCAAG,-0.0599
4,GGUCACGUCUCAAUCAACUCAACUCCCAGGGAAAGCCCUGGCAUUCUCAACAGCUCGCAGUCAAG,0.14
5,GGUCACGUCUCAAUCAACUCUUCGUCCAGGGAAAUCCCUGGUUUAUUCAACAGCUCGCAGUCAAG,0.278
6,GGUCACGUCUCAAUCAACUCUUUCCCCAGGGAAAUCCCUGGCUUUCUCAACAGCUCGCAGUCAAG,0.094
7,GGUCACGUCUCAAUCAACUCAAUCCCAGGAGUUUCCUCCUGCAAAUUCAACAGCUCGCAGUCAAG,0.213
8,GGUCACGUCUCAAUCAACUCUAUCCCCAGGGAAACCCCUGGUUUACUCAACAGCUCGCAGUCAAG,-0.0937
9,GGUCACGUCUCAAUCAACUCAAUCUCCAGGGAAACCCCUGGUUAAUUCAACAGCUCGCAGUCAAG,0.0884
10,GGUCACGUCUCAAUCAACUCAAUCUCCAGGGAAAACCCUGGCUAAUUCAACAGCUCGCAGUCAAG,-0.0351
11,GGUCACGUCUCAAUCAACUCUCCAGAGGGGGGGAAAACCCCUUUACCCUCACCAUCAACAGCUCGCAGUCAAG,0.128
12,GGUCACGUCUCAAUCAACUCAAUUUCCAGGGAAAACCCUGGUAUACUCAACAGCUCGCAGUCAAG,-0.0362
13,GGUCACGUCUCAAUCAACUCAUCCUCCAGGGAAAGCCCUGGCUUUUUCAACAGCUCGCAGUCAAG,-0.0957
14,GGUCACGUCUCAAUCAACUCAAUUCCAGGAGUUUUCUCCUGCUUUCUCAACAGCUCGCAGUCAAG,-0.0441
15,GGUCACGUCUCAAUCAACUCUACUUCCAGGGAAAUCCCUGGCAAUCUCAACAGCUCGCAGUCAAG,0.0684
16,GGUCACGUCUCAAUCAACUCUCUCGAGGGGGGGAAAACCCCUUUACCCUCACAAUCAACAGCUCGCAGUCAAG,0.571
17,GGUCACGUCUCAAUCAACUCAAUUCCAGGAGUUUCCUCCUGUUAUCUCAACAGCUCGCAGUCAAG,0.0703
18,GGUCACGUCUCAAUCAACUCAUUCUCAGGAGUUUACUCCUGCAAACUCAACAGCUCGCAGUCAAG,0.0566
19,GGUCACGUCUCAAUCAACUCUUCUCCCAGGGAAACCCCUGGUUAUGUCAACAGCUCGCAGUCAAG,0.241
20,GGUCACGUCUCAAUCAACUCACCCGAGGGGGGGAAAACCCCUUUACCCUCAAUUUCAACAGCUCGCAGUCAAG,0.0398
21,GGUCACGUCUCAAUCAACUCUACUCCCAGGGAAAACCCUGGCUAUCUCAACAGCUCGCAGUCAAG,-0.181
22,GGUCACGUCUCAAUCAACUCUUUCCCAGGAGUUUUCUCCUGCAAACUCAACAGCUCGCAGUCAAG,0.0249
23,GGUCACGUCUCAAUCAACUCAUUUUCCAGGGAAAUCCCUGGCAAUUUCAACAGCUCGCAGUCAAG,0.0969
24,GGUCACGUCUCAAUCAACUCUUCCUCAGGAGUUUACUCCUGUAUACUCAACAGCUCGCAGUCAAG,-0.135
